Where a name gives a salt, the structure may show the parent alone. The list shows a part of the results.
What follows are compounds tested on Schistosoma mansoni schistosomula (assay: phenotypic hit in primary schistosomula screen (any phenotype vs DMSO control) (binary (1 = hit, 0 = no phenotype)); higher = active (phenotype induced)). Settings: 1 µM; time (d): 7.

Row | Structure (SMILES) | phenotypic hit
1 | CC[C@H]1OC(=O)[C@H](C)[C@@H](O[C@H]2C[C@@](C)(OC)[C@@H](O)[C@H](C)O2)[C@H](C)[C@@H](O[C@@H]2O[C@H](C)C[C@H](N(C)C)[C@H]2O)[C@](C)(O)C[C@@H](C)[C@@H]2N[C@@H](COCCOC)O[C@H]([C@H]2C)[C@]1(C)O [dirithromycin] | inactive: 0
2 | O=c1cc[nH]c(=S)[nH]1 [2-thiouracil] | inactive: 0
3 | COc1ccc(-c2c(OC)c3c(OC)c4c(cc3oc2=O)OC(C)(C)C=C4)cc1 [robustic acid methyl ether] | inactive: 0
4 | CC(=O)Oc1ccc2c(c1)CCC1C2CC[C@]2(C)C(=O)CCC12 (some centres undefined) [estrone acetate] | inactive: 0
5 | CN(C)c1nc(N(C)C)nc(N(C)C)n1 [altretamine] | inactive: 0
6 | CC(=O)N[C@@H](Cc1c[nH]c2ccccc12)C(N)=O [acetyltryptophanamide] | inactive: 0
7 | CC(=O)O[C@]1(C(C)=O)CC[C@H]2[C@@H]3C[C@H](C)C4=CC(=O)CC[C@]4(C)[C@H]3CC[C@@]21C [medroxyprogesterone acetate] | inactive: 0
8 | CC(C)NCC(O)c1ccc2ccccc2c1 (centres undefined) [pronetalol hydrochloride] | inactive: 0
9 | C[C@H]1C[C@@H]2[C@H]([C@@H](O)C[C@@]3(C)[C@H]2CC[C@]3(O)C(=O)CO)[C@@]2(C)C=CC(=O)C=C12 [methylprednisolone] | inactive: 0
10 | CS(=O)(=O)CCCCN=C=S [erysolin] | inactive: 0
11 | CCCNCC(O)COc1ccccc1C(=O)CCc1ccccc1 (centres undefined) [propafenone hydrochloride] | inactive: 0
12 | CC1(C)C=C[C@H](O)[C@@]2(C)C1C[C@@H](O)[C@]1(C)C2CC[C@@]2(C)[C@H](c3ccoc3)OC(=O)[C@H]3O[C@]321 (some centres undefined) [7-deacetyldihydrogedunin] | inactive: 0
13 | COc1cc([C@@H]2c3cc4c(cc3[C@@H](O[C@@H]3O[C@@H]5CO[C@@H](C)O[C@H]5[C@H](O)[C@H]3O)[C@H]3COC(=O)[C@H]23)OCO4)cc(OC)c1O [etoposide] | inactive: 0
14 | O=C(Nc1ccccc1)Nc1ccccc1 [diphenylurea] | inactive: 0
15 | O=c1c(O)c(-c2ccccc2)oc2cc(O)ccc12 [3,7-dihydroxyflavone] | inactive: 0
16 | O=c1c(O)c(-c2ccc(O)cc2O)oc2cc(O)cc(O)c12 [morin] | inactive: 0
17 | CC(C)C[C@@H](NC(=O)[C@H](C)NC(=O)CNC(=O)[C@@H](NC=O)C(C)C)C(=O)N[C@@H](C)C(=O)N[C@@H](C(=O)N[C@H](C(=O)N[C@H](C(=O)N[C@@H](Cc1c[nH]c2ccccc12)C(=O)N[C@H](CC(C)C)C(=O)N[C@@H](Cc1c[nH]c2ccccc12)C(=O)N[C@H](CC(C)C)C(=O)N[C@@H](Cc1c[nH]c2ccccc12)C(=O)N[C@H](CC(C)C)C(=O)N[C@@H](Cc1c[nH]c2ccccc12)C(=O)NCCO)C(C)C)C(C)C)C(C)C [gramicidin] | active: 1
18 | OC[C@H]1O[C@@H](Oc2cc(O)cc(/C=C/c3ccc(O)cc3)c2)[C@H](O)[C@@H](O)[C@@H]1O [piceid] | inactive: 0
19 | COc1cc(-c2coc3cc(O[C@@H]4O[C@H](CO)[C@@H](O)[C@H](O)[C@H]4O)c(OC)c(O)c3c2=O)cc(O)c1OC [iridin] | inactive: 0
20 | CCC(=O)O[C@]1(C(=O)CCl)[C@@H](C)C[C@H]2[C@@H]3CCC4=CC(=O)C=C[C@]4(C)[C@@]3(F)[C@@H](O)C[C@@]21C [clobetasol propionate] | inactive: 0
21 | O=C1C[C@@H](c2ccc(O)cc2)Oc2cc(O)cc(O)c21 [naringenin] | inactive: 0
22 | c1ccc([C@H]2CN3CCSC3=N2)cc1 [levamisole hydrochloride] | inactive: 0

Row | Structure (SMILES) | phenotypic hit
23 | NC(=O)c1ccc([N+](=O)[O-])cc1Cl [aklomide] | inactive: 0
24 | O=C1OCCN1/N=C/c1ccc([N+](=O)[O-])o1 [furazolidone] | inactive: 0
25 | C1CNCCN1 [piperazine] | inactive: 0
26 | COc1c2occc2c(OC)c2c(=O)cc(C)oc12 [khellin] | inactive: 0
27 | COc1ccc(-c2coc3c(OC)c(OC)ccc3c2=O)cc1 [retusin dimethyl ether] | active: 1
28 | Cn1c(=O)[nH]c2[nH]cnc2c1=O [1-methylxanthine] | inactive: 0
29 | C[C@H](CCC(=O)O)[C@H]1CC[C@H]2[C@@H]3[C@H](O)C[C@@H]4C[C@H](O)CC[C@]4(C)[C@H]3CC[C@]12C [chenodiol] | inactive: 0
30 | NCC(O)CC(=O)O (centres undefined) [aminohydroxybutyric acid] | inactive: 0
31 | CC(=O)OCC(CCn1cnc2cnc(N)nc21)COC(C)=O [famciclovir] | active: 1
32 | NNc1nncc2ccccc12 [hydralazine hydrochloride] | inactive: 0
33 | CN1CCN(CCCN2c3ccccc3Sc3ccc(Cl)cc32)CC1 [Prochlorperazine dimaleate] | inactive: 0
34 | CC(=O)Oc1cc(OC(C)=O)c2c(c1)O[C@H](c1ccc(OC(C)=O)c(OC(C)=O)c1)[C@H](OC(C)=O)C2 [epicatechin pentaacetate] | inactive: 0
35 | O=C1c2ccccc2C(=O)c2c1ccc(O)c2O [alizarin] | inactive: 0
36 | CC(=O)O[C@H]1CC[C@@]2(C)[C@@H](CC[C@@H]3[C@@H]2CC(=O)[C@]2(C)[C@@H]4[C@H](C[C@@H]32)O[C@]2(CC[C@@H](C)CO2)[C@H]4C)C1 [hecogenin acetate] | inactive: 0
37 | COC(=O)/C=C/C(C)=C\C=C\C(C)=C\C=C\C=C(C)\C=C\C=C(C)\C=C\C(=O)O [bixin] | inactive: 0
38 | O=c1oc2ccccc2c(O)c1Cc1c(O)c2ccccc2oc1=O [dicumarol] | inactive: 0
39 | CCc1cn([C@H]2C[C@H](O)[C@@H](CO)O2)c(=O)[nH]c1=O [edoxudine] | inactive: 0
40 | C[C@@H]1O[C@@H](O[C@H]2[C@H](Oc3cc(O)c4c(=O)cc(-c5ccc(O)cc5)oc4c3)O[C@H](CO)[C@@H](O)[C@@H]2O)[C@H](O)[C@H](O)[C@H]1O [rhoifolin] | inactive: 0
41 | Cc1c(N(C)CS(=O)(=O)O)c(=O)n(-c2ccccc2)n1C [dipyrone] | inactive: 0
42 | NCCCCC(N)C(=O)NC(Cc1c[nH]c2ccccc12)C(=O)NC(CCCCN)C(=O)O (centres undefined) [lysyltryptophanyl-lysine acetate] | inactive: 0
43 | CC(NCCC(c1ccccc1)c1ccccc1)c1ccccc1 (centres undefined) [fendiline hydrochloride] | inactive: 0
44 | CC(=O)[C@H]1CC[C@H]2[C@@H]3CC(=O)C4=CC(=O)CC[C@]4(C)[C@H]3CC[C@]12C [6-oxoprogesterone] | inactive: 0

Row | Structure (SMILES) | phenotypic hit
45 | CC1(C)OC(=O)NC1=O [dimethadione] | inactive: 0
46 | Nc1ccc(C(=O)NCC(=O)O)cc1 [aminohippuric acid] | inactive: 0
47 | COc1ccc(NS(=O)(=O)c2ccc(N)cc2)nn1 [sulfamethoxypyridazine] | inactive: 0
48 | Cn1nnnc1SCC1=C(C(=O)O)N2C(=O)[C@@H](NC(=O)[C@H](O)c3ccccc3)[C@H]2SC1 [cefamandole sodium] | inactive: 0
49 | CCC[C@H](N[C@@H](C)C(=O)N1[C@H](C(=O)O)C[C@@H]2CCCC[C@@H]21)C(=O)OCC [perindopril erbumine] | inactive: 0
50 | OCCN1CCN(CCCN2c3ccccc3Sc3ccc(Cl)cc32)CC1 [perphenazine] | inactive: 0
51 | Nc1ccc(S(=O)(=O)c2ccc(N)cc2)cc1 [dapsone] | inactive: 0
52 | OC[C@H]1O[C@@H](Oc2ccc(O)cc2)[C@H](O)[C@@H](O)[C@@H]1O [arbutin] | inactive: 0
53 | COc1cc(/C=C/C(=O)O)cc(OC)c1OC [sinapic acid methyl ether] | inactive: 0
54 | CC(=O)OCC(=O)[C@@]1(O)CCC2C3CC[C@@H]4C[C@H](OC(C)=O)CC[C@]4(C)C3C(=O)C[C@@]21C (some centres undefined) [tetrahydrocortisone-3,21-diacetate] | inactive: 0
55 | N[C@H]1C(O)O[C@H](CO)[C@@H](O)[C@@H]1O (some centres undefined) [glucosamine hydrochloride] | inactive: 0
56 | COC(=O)C1=CO[C@@H](O[C@@H]2O[C@H](CO)[C@@H](O)[C@H](O)[C@H]2O)[C@@H]2[C@@H](C)[C@@H](O)C[C@H]12 [loganin] | inactive: 0
57 | NC(C(=O)O)C(O)C(=O)O (stereo not drawn) [d,l-threo-3-hydroxyaspartic acid] | inactive: 0
58 | CC(=O)Oc1cccc2c1C(=O)c1c(OC(C)=O)cc(C(=O)O)cc1C2=O [diacerin] | inactive: 0
59 | N=C(N)NCCC[C@@H](NC(=O)[C@@H](N)Cc1ccc(O)cc1)C(=O)O [d[-arg-2]kyotorphan acetate] | inactive: 0
60 | NC(=O)N/N=C/c1ccc([N+](=O)[O-])o1 [nitrofurazone] | inactive: 0
61 | COc1c(C2COc3cc4c(cc3C2=O)CC(O)C(C)(C)O4)ccc2c1CCC(C)(C)O2 (centres undefined) [dihydromundulone] | inactive: 0
62 | CN(C)CCC[C@@]1(c2ccc(F)cc2)OCc2cc(C#N)ccc21 [escitalopram oxalate] | inactive: 0
63 | CC(=O)N[C@@H](CCC(=O)O)C(=O)O [acetylglutamic acid] | inactive: 0
64 | CCCC(=O)Nc1ncnc2c1ncn2[C@@H]1O[C@@H]2COP(=O)(O)O[C@H]2[C@H]1OC(=O)CCC [bucladesine] | inactive: 0
